Source: the supplement of paper PMC3334620
Over roughly 33,000 sequences, “E-score (-0.5 to 0.5)” has its median near -0.053; the highest 2% begin near 0.37. The list shows a part of the results.

Target: Hap1 (UniProt P0CE41)
Experiment: PBM E-score (8-mer binding enrichment) (E-score (-0.5 to 0.5)); higher = stronger / more preferred TF binding; most listed sequences are background and not binding sites
Settings: protein concentration: 200 nM; construct: GST-DNA-binding domain
Method: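 Universal 'all 10-mer' protein binding microarrays (Agilent AMADID 015681) probed with GST-tagged S. cerevisiae TFs (full-length or DBD) made by in vitro transcription/translation (PURExpress), about 100-200 nM. Bound TF was detected with fluorescent anti-GST. Each ungapped 8-mer (which stands for itself and its reverse complement) is scored by the PBM enrichment score (E-score), a modified Wilcoxon-Mann-Whitney statistic from -0.5 to +0.5, computed with the Universal PBM Analysis Suite. Scale: above 0.35 generally sequence-specific binding.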

Sequence of UniProt P0CE41 (P0CE41 whole entry): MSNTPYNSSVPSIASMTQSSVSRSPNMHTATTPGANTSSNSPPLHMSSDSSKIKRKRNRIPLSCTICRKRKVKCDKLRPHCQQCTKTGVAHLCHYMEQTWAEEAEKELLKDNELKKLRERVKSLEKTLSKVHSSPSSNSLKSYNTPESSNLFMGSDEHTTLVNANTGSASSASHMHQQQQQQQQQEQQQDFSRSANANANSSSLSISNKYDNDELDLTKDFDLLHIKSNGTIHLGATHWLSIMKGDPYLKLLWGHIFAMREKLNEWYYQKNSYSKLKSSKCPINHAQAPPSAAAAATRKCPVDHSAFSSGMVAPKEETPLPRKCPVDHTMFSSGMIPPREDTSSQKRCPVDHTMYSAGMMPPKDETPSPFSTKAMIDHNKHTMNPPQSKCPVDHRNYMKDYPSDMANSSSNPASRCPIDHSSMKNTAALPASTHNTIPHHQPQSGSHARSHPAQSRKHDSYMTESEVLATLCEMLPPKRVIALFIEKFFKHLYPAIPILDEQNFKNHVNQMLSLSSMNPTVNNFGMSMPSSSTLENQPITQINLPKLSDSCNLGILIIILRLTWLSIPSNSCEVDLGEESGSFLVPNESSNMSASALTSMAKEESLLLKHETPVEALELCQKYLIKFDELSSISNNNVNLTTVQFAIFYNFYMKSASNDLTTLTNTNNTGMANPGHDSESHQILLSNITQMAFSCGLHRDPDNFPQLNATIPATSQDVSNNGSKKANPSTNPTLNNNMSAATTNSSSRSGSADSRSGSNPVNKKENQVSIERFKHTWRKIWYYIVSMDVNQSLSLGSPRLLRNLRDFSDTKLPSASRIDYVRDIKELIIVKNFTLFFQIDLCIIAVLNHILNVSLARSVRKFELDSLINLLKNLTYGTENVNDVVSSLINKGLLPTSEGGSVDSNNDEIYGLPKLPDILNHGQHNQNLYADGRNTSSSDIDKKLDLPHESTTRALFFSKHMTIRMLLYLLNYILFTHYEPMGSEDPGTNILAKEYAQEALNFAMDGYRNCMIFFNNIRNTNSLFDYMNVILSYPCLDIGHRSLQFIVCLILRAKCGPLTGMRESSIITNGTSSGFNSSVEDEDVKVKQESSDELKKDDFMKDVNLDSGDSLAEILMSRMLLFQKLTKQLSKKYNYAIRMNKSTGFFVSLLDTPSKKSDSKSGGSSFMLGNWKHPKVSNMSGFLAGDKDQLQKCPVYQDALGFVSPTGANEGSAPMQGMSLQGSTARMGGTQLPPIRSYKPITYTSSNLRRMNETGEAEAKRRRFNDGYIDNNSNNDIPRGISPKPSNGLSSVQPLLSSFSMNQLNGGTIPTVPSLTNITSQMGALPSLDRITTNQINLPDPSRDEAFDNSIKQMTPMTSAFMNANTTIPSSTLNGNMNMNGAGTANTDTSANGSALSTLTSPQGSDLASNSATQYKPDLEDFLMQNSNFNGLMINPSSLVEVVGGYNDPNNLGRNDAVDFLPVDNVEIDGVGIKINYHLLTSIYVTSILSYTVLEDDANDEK

| Sequence | PBM E-score |
| --- | --- |
| ACGTCTTC | -0.154 |
| ACCTATGC | -0.0561 |
| CGCGTTAG | 0.0478 |
| AAGACCGC | 0.189 |
| ACCAACTA | -0.0754 |
| TCCGGAGA | 0.442 |
| CATCATCG | 0.0441 |
| CCACCTAG | -0.172 |
| TAGGCAGA | -0.0956 |
| GCTGGGCA | -0.195 |
| AGGTCCTC | -0.0595 |
| AGCGTGAA | -0.265 |
| GAGTGATC | -0.04 |
| ATTTACGA | 0.0048 |
| ATCTGACC | 0.14 |
| CACGGAAG | 0.159 |
| GAGCGCGA | 0.0945 |
| ATGACTTA | -0.224 |
| AACGTAGC | -0.215 |
| GCTGCTCC | -0.037 |
| TCCGCTAA | 0.336 |
| ACCCTTCT | -0.228 |
| CGCCGTCA | 0.163 |
| CGCTGTAC | -0.0988 |
| ACATGGGC | -0.0579 |

| Sequence | PBM E-score |
| --- | --- |
| TCGCTGCA | 0.0886 |
| CTGGATTA | 0.169 |
| TTACACAA | -0.15 |
| CTGTAGAC | -0.076 |
| ATACTCGA | -0.264 |
| CGCGCGCG | 0.287 |
| GCTTAGAA | -0.0878 |
| AATCCATC | -0.087 |
| CTGTAGCA | -0.103 |
| CAAAGTTA | -0.00975 |
| CTGGTTAC | -0.205 |
| ATCTTAAT | -0.106 |
| TCGGCCCA | 0.304 |
| ATTTGGGG | -0.0211 |
| CAAGCGAA | 0.053 |
| GGCTCGGA | 0.344 |
| GAGGCGAC | -0.164 |
| AGCAACTA | -0.0755 |
| CCTTAGTC | -0.167 |
| TCGTTACA | -0.285 |
| GGTAGGGA | 0.0501 |
| AAGGCCGG | 0.408 |
| CCCTTAAA | -0.115 |
| ATTTCCAG | 0.129 |
| CCCATATC | 0.0933 |

| Sequence | PBM E-score |
| --- | --- |
| GCTTCTAA | -0.178 |
| CGCAACAA | -0.187 |
| AAAACAAC | -0.305 |
| CAGGTTGA | -0.231 |
| CCTCCATC | -0.212 |
| CACATAGG | -0.15 |
| AAAATAAG | -0.195 |
| ATTGCTTC | 0.0444 |
| CGAACGCA | 0.13 |
| GCGCCTCA | 0.0896 |
| ATCGCGGC | 0.285 |
| CCATGCAG | -0.239 |
| AGGGCAAC | -0.0307 |
| ACATTTCT | 0.0135 |
| CACTCAAG | -0.375 |
| AACCGGCA | 0.158 |
| GGGCGGGA | 0.144 |
| AGCGTTTG | -0.183 |
| CGGAGTGC | 0.216 |
| ACAGGGGT | -0.338 |
| AGCAGCAA | -0.181 |
| GCAGGCAC | -0.11 |
| ACGACCGT | -0.0362 |
| CGAGTACA | 0.105 |
| AGGATCGC | -0.1 |

| Sequence | PBM E-score |
| --- | --- |
| CCGTCCAA | 0.133 |
| ACCAACAC | -0.207 |
| ACTACCCT | -0.126 |
| ACCCTTAA | 0.0529 |
| AGCTGCAC | -0.0426 |
| GACTCCAC | -0.13 |
| CTAAGAAA | -0.0774 |
| CCAACCAC | 0.0917 |
| AACTCACA | -0.198 |
| TCGGGCCA | 0.319 |
| ACTCTTTG | -0.264 |
| ACTTACAT | -0.192 |
| AGAAACAC | -0.0607 |
| CCCGCTAC | 0.17 |
| AAAAGGAT | -0.206 |
| GACGTCAC | -0.00738 |
| ACCATAAC | -0.0854 |
| CCTCTGTC | -0.191 |
| CACGTAAA | -0.226 |
| AGCGTGCC | -0.00934 |
| ACTGGCTA | -0.205 |
| CTCAGTAC | -0.163 |
| GAGTTCCA | -0.0628 |
| GCTGTCCC | -0.0362 |
| CGCCCCAA | 0.202 |

| Sequence | PBM E-score |
| --- | --- |
| CGTTTCTC | 0.136 |
| ACATCGAA | 0.0444 |
| AGATAGGA | -0.0706 |
| AGGAGTAG | -0.195 |
| CAACAAGA | -0.156 |
| AGGACCAA | -0.0317 |
| AACTCCAA | -0.0924 |
| CATAAAAG | -0.15 |
| CCACCTAC | -0.268 |
| CGTTCAAC | -0.0796 |
| CTTGCTGC | -0.274 |
| GATGCAAC | -0.132 |
| ACCGTGAG | -0.00275 |
| CTAGATCA | -0.253 |
| TTAAGGAA | -0.0562 |
| ACACGAAG | -0.0865 |
| AGGAAAGG | -0.0107 |
| TCGCCTAA | 0.0461 |
| CCTAACAG | -0.127 |
| ACGTTATG | -0.0102 |
| CATGGCTA | -0.156 |
| GCTTATTA | 0.034 |
| AACTCGAA | -0.0767 |
| AGCTCATC | -0.0143 |
| CGCAGTAC | -0.0761 |

| Sequence | PBM E-score |
| --- | --- |
| GACGGGCA | 0.0331 |
| GATTCCGA | 0.334 |
| AAACTAGT | -0.15 |
| ATGAGCGC | 0.0308 |
| AAAGATTA | 0.0908 |
| CGCTCTTC | -0.094 |
| GGACAGAA | 0.079 |
| ACTCGCCG | 0.202 |
| CATCCCGC | 0.0848 |
| CAGACTCA | -0.251 |
| GTACACCA | -0.203 |
| ATACGAGG | 0.0558 |
| AGCCGCGA | 0.223 |
| GGACGATA | 0.142 |
| CGTCGCGC | 0.133 |
| ATAAGTGA | -0.103 |
| AGCGTAGA | -0.0389 |
| AGCTGCCC | 0.157 |
| AATCAGGA | -0.225 |
| GCCAATAC | 0.0676 |
| ATCACATG | -0.204 |
| ACAACGGA | 0.275 |
| GACCCGCC | 0.112 |
| CTGATCCC | -0.089 |
| CTACATAG | -0.107 |

| Sequence | PBM E-score |
| --- | --- |
| AAGCTCAC | -0.0627 |
| AGATGGCT | -0.0974 |
| CCCCTCGG | 0.284 |
| ACCACGAC | -0.195 |
| GCTTGCGA | -0.0221 |
| ATTCATTG | -0.204 |
| AGCGCTTC | 0.112 |
| CCCGAACG | 0.272 |
| CAAAATGG | 0.0452 |
| TAACGGAA | 0.375 |
| CACTTGGG | -0.142 |
| ACCCGGGT | 0.393 |
| AAGAGCAT | -0.101 |
| ACATGGTG | -0.243 |
| CTCGAGGA | -0.254 |
| ACGGGACC | -0.0272 |
| ATGGCAAG | -0.163 |
| AGTATCAG | -0.168 |
| AAATGTTC | -0.108 |
| CTTTGAGA | -0.176 |
| ATTCCGCA | 0.196 |
| AACCCATG | -0.0437 |
